# Laboratory results reported in the supplement of paper PMC8728848.
# Some of the results follow.
# What was measured:
# Experiment in all cases: glycan array binding signal (z-score within array); higher = stronger binding
# Conditions in all cases: glycan notation: IUPAC condensed, linker removed
# Neu5Ac(a2-8)Neu5Ac = molecular target: Neu5Ac(a2-8)Neu5Ac
# Method in brief: (§1)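 Glycan array data were curated from 3228 arrays in the Consortium for Functional Glycomics database and kept only where the protein sequence was available. Glycan names were converted to IUPAC-condensed notation, and columns mapping to the same glycan were averaged. The binding signal is a within-array Z-score, averaged across arrays of the same protein sequence at different concentrations or buffers and across linkers. Negative Z-scores can be read as non-binding.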
# [1] = molecular target: Neu5Ac(a2-8)Neu5Ac(a2-3)Gal(b1-3)GalNAc(b1-4)[Neu5Ac(a2-3)]Gal(b1-4)Glc
# Method in brief: as §1
# [2] = molecular target: Neu5Ac(a2-8)Neu5Ac(a2-3)Gal(b1-3)GalNAc(b1-4)[Neu5Ac(a2-8)Neu5Ac(a2-3)]Gal(b1-4)Glc
# Method in brief: as §1
# [3] = molecular target: Neu5Ac(a2-8)Neu5Ac(a2-3)Gal(b1-4)Glc
# Method in brief: as §1
# [4] = molecular target: Neu5Ac(a2-8)Neu5Ac(a2-3)Gal(b1-4)GlcNAc
# Method in brief: as §1
# [5] = molecular target: Neu5Ac(a2-8)Neu5Ac(a2-3)[Gal(b1-3)GalNAc(b1-4)]Gal(b1-4)Glc
# Method in brief: as §1
# [6] = molecular target: Neu5Ac(a2-8)Neu5Ac(a2-3)[GalNAc(b1-4)]Gal(b1-4)Glc
# Method in brief: as §1
# [7] = molecular target: Neu5Ac(a2-8)Neu5Ac(a2-8)Neu5Ac
# Method in brief: as §1
# [8] = molecular target: Neu5Ac(a2-8)Neu5Ac(a2-8)Neu5Ac(a2-3)Gal(b1-4)Glc
# Method in brief: as §1
# [9] = molecular target: Neu5Ac(a2-8)Neu5Ac(a2-8)Neu5Ac(a2-3)[Gal(b1-3)GalNAc(b1-4)]Gal(b1-4)Glc
# Method in brief: as §1
# [10] = molecular target: Neu5Ac(a2-8)Neu5Ac(a2-8)Neu5Ac(a2-3)[GalNAc(b1-4)]Gal(b1-4)Glc
# Method in brief: as §1
# [11] = molecular target: Neu5Ac(a2-8)Neu5Ac(a2-8)Neu5Ac(a2-8)Neu5Ac(a2-3)[GalNAc(b1-4)]Gal(b1-4)Glc
# Method in brief: as §1
# [12] = molecular target: Neu5Ac(a2-8)Neu5Gc(a2-3)Gal(b1-4)GlcNAc
# Method in brief: as §1
# [13] = molecular target: Neu5Ac(b2-6)Gal(b1-4)GlcNAc
# Method in brief: as §1
# Neu5Ac(b2-6)GalNAc = molecular target: Neu5Ac(b2-6)GalNAc
# Method in brief: as §1
# [14] = molecular target: Neu5Ac9Ac(a2-3)Gal(b1-3)GlcNAc
# Method in brief: as §1
# [15] = molecular target: Neu5Ac9Ac(a2-3)Gal(b1-4)GlcNAc
# Method in brief: as §1
# [16] = molecular target: Neu5Ac9Ac(a2-6)Gal(b1-4)GlcNAc
# Method in brief: as §1
# [17] = molecular target: Neu5Gc(a2-3)Gal(b1-3)GlcNAc
# Method in brief: as §1
# [18] = molecular target: Neu5Gc(a2-3)Gal(b1-3)[Fuc(a1-4)]GlcNAc
# Method in brief: as §1
# Neu5Gc(a2-3)Gal(b1-4)Glc = molecular target: Neu5Gc(a2-3)Gal(b1-4)Glc
# Method in brief: as §1
# [19] = molecular target: Neu5Gc(a2-3)Gal(b1-4)GlcNAc
# Method in brief: as §1
# [20] = molecular target: Neu5Gc(a2-3)Gal(b1-4)GlcNAc(b1-3)Gal(b1-4)GlcNAc(b1-2)Man(a1-3)[Neu5Gc(a2-3)Gal(b1-4)GlcNAc(b1-3)Gal(b1-4)GlcNAc(b1-2)Man(a1-6)]Man(b1-4)GlcNAc(b1-4)GlcNAc
# Method in brief: as §1
# [21] = molecular target: Neu5Gc(a2-3)Gal(b1-4)[Fuc(a1-3)]GlcNAc
# Method in brief: as §1
# [22] = molecular target: Neu5Gc(a2-6)Gal(b1-4)GlcNAc
# Method in brief: as §1
# Neu5Gc(a2-6)GalNAc = molecular target: Neu5Gc(a2-6)GalNAc
# Method in brief: as §1
# [23] = molecular target: Neu5Gc(a2-8)Neu5Ac(a2-3)Gal(b1-4)GlcNAc
# Method in brief: as §1
# [24] = molecular target: Neu5Gc(a2-8)Neu5Gc(a2-3)Gal(b1-4)GlcNAc
# Method in brief: as §1
# [25] = molecular target: Neu5Gc(a2-8)Neu5Gc(a2-3)Gal(b1-4)GlcNAc(b1-3)Gal(b1-4)GlcNAc
# Method in brief: as §1
# [26] = molecular target: Neu5Gc(a2-8)Neu5Gc(a2-6)Gal(b1-4)GlcNAc
# Method in brief: as §1
# [27] = molecular target: Neu5Gc(b2-6)Gal(b1-4)GlcNAc
# Method in brief: as §1
binder,measurement,setting,value
"PVL (Psathyrella velutina), Q309D1_9AGAR (protein) MSVVVISQALPVPTRIPGVADLVGFGNGGVYIIRNSLLIQVVKVINNFGYDAGGWRVEKHVRLLADTTGDNQPDVVGFGENGVWISTNNGNNTFVDPPKMVLANFAYAAGGWRVEKHIRFMADLRKTGRADIVGFGDGGIYISRNNGGGQFAPAQLALNNFGYAQGWRLDRHLRFLADVTGDGLLDVVGFGENQVYIARNSGNGTFQPAQAVVNNFCIGAGGWTISAHPRVVADLTGDRKADILGFGVAGVYTSLNNGNGTFGAVNLVLKDFGVNSGWRVEKHVRCVSSLTNKKVGDIIGFGDAGVYVALNNGNGTFGPVKRVIDNFGYNQGWRVDKHPRFVVDLTGDGCADIVGFGENSVWACMNKGDGTFGPIMKLIDDMTVSKGWTLQKTVRYAANLYL",glycan array binding signal (z-score),Neu5Ac(a2-8)Neu5Ac,-0.169
same,glycan array binding signal (z-score),[1],-0.344
same,glycan array binding signal (z-score),[2],-0.341
same,glycan array binding signal (z-score),[3],-0.328
same,glycan array binding signal (z-score),[4],-0.379
same,glycan array binding signal (z-score),[5],-0.332
same,glycan array binding signal (z-score),[6],-0.343
same,glycan array binding signal (z-score),[7],-0.323
same,glycan array binding signal (z-score),[8],-0.318
same,glycan array binding signal (z-score),[9],-0.349
same,glycan array binding signal (z-score),[10],-0.347
same,glycan array binding signal (z-score),[11],-0.301
same,glycan array binding signal (z-score),[12],-0.293
same,glycan array binding signal (z-score),[13],-0.357
same,glycan array binding signal (z-score),Neu5Ac(b2-6)GalNAc,-0.19
same,glycan array binding signal (z-score),[14],-0.327
same,glycan array binding signal (z-score),[15],-0.066
same,glycan array binding signal (z-score),[16],-0.217
same,glycan array binding signal (z-score),[17],-0.362
same,glycan array binding signal (z-score),[18],-0.348
same,glycan array binding signal (z-score),Neu5Gc(a2-3)Gal(b1-4)Glc,-0.357
same,glycan array binding signal (z-score),[19],-0.363
same,glycan array binding signal (z-score),[20],0.11
same,glycan array binding signal (z-score),[21],-0.318
same,glycan array binding signal (z-score),[22],-0.355
same,glycan array binding signal (z-score),Neu5Gc(a2-6)GalNAc,-0.353
same,glycan array binding signal (z-score),[23],-0.364
same,glycan array binding signal (z-score),[24],-0.364
same,glycan array binding signal (z-score),[25],-0.261
same,glycan array binding signal (z-score),[26],-0.408
same,glycan array binding signal (z-score),[27],-0.366
